The list shows a part of the results.
Each sequence was assayed on PF3D7_0420300 AP2 domain 1 (GST-tagged) (assay: gcPBM binding intensity (ln(normalized median fluorescence intensity)); higher = stronger DNA binding).
Procedure, shortened: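 The binding buffer was 1× PBS containing 1% milk, 0.2 mg/ml BSA, 0.5% salmon testes DNA and 0.03% Triton X-100. In it, GST-tagged P. falciparum DNA-binding domains expressed in E. coli were applied for 1 h to an Agilent 4 × 180k array of primer-extended double-stranded 36-bp intergenic genomic probes plus negative controls. Binding intensity, read with Alexa488 anti-GST antibody and a 488 nm scan, is the highest Masliner-normalised natural-log median intensity across replicate spots of either probe orientation.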

Compared with “ATCTATATTATAATAACACACATATATTATAGTATA [CACACA_site6330]”, “TTTTTATGTGTATATTATTACATTTACATCTTTAAC [CACACA_negctrl_site1676]” is lower in “gcPBM binding intensity (ln)” value: 9.45 for the first, 9.35 for the second.

Compared with “ACAAGACAACAAGGAAGTACTCATAAATATATTTGG [XGTACX_site1423]”, “ATGTAGAATTGTAAATGTACATGAAACACATATTCA [XGTACX_site3436]” is lower in “gcPBM binding intensity (ln)” value: 9.4 for the first, 9.28 for the second.

Compared with “CTCACATATATATATAGTACAATTTTTTTTTTTTTT [XGTACX_site5999]”, “AGTAAATAATTATATACATGCATTTACTAATATTTA [TGCATGCA_site952]” is higher in “gcPBM binding intensity (ln)” value: 9.15 for the first, 9.17 for the second.

First: ATATGACGTAGTGGTGTACACACATGGTACCTTTAT [CACACA_site8436]
Second: CATATACATACACATACACACATACACCCATACACA [CACACA_site8514]
The “gcPBM binding intensity (ln)” value of the first is lower: 9.66 for the first, 9.77 for the second.

Going from “TGTAAAAAATTTAACACACACATATATAAATATGTA [CACACA_site7261]” to “AATATATATTTATGTACACACTCCAATACAGATACA [CACACA_site5481]”, the “gcPBM binding intensity (ln)” value rises from 9.47 to 9.57.

First: ATACTATTATATATATGTACATATATATGATGCTCT [XGTACX_site1771]
Second: AAGGAGCCTATGAACACACACATGTACATATATTAA [CACACA_site4084]
The “gcPBM binding intensity (ln)” value of the first is lower: 9.39 for the first, 9.59 for the second.

Compared with “TTCGTTCTTTTATGCACACTCAACATATAAATTAAA [CACACA_site1209]”, “TTATAATATATATGTAGTACTGTTTTTTTCTATTTT [XGTACX_site7749]” is lower in “gcPBM binding intensity (ln)” value: 9.54 for the first, 9.52 for the second.

Compared with “TATTATTTTAAAAATGCATGTTCATATGAAATAATA [TGCATGCA_site969]”, “TGTACAAATATGTACACACACACATATATATATATA [CACACA_site584]” is higher in “gcPBM binding intensity (ln)” value: 9.04 for the first, 9.85 for the second.

Compared with “TATTCACATACAGAAACACACACATATATATAAATT [CACACA_site9232]”, “TTTGTGTGTGCGTGTGCATGTTGTTTTTTTCTATAA [TGCATGCA_site17]” is higher in “gcPBM binding intensity (ln)” value: 9.78 for the first, 10.1 for the second.

Compared with “AATATAATAACTTATTGTACGAAATTATATCACCTT [XGTACX_site7883]”, “TAATTAAGCATAAATATAATTTTATATTTTATTTCC [XGTACX_negctrl_site321]” is lower in “gcPBM binding intensity (ln)” value: 9.32 for the first, 8.89 for the second.

Going from “TGCAGTCTGGAGAAAAGTACATAGTATCTGGTAGCT [XGTACX_site2547]” to “TAACATAGCAATGTTTCACACACAAGAAAAAATACA [CACACA_site8747]”, the “gcPBM binding intensity (ln)” value rises from 9.23 to 9.73.

Going from “ATATATGTATATATTTGTACATATAATATTTTTTAA [XGTACX_site6345]” to “ATTTGTAATTTATTCAAACACACAATTTGGACCTTT [CACACA_site1062]”, the “gcPBM binding intensity (ln)” value rises from 9.04 to 9.21.

Going from “TATATTATAATTTGAAGTACATTTTAAATTAACTAA [XGTACX_site1013]” to “ATATAATAGTATATATGTACATATATTTAAATACTA [XGTACX_site1135]”, the “gcPBM binding intensity (ln)” value rises from 8.88 to 9.27.

First: AAAAAATAAAAAAAAACACACACATACAAGCATATA [CACACA_site8451]
Second: AGAGAGAGAAATACAAGTACATGTGAAACCAATCTA [XGTACX_site2767]
The “gcPBM binding intensity (ln)” value of the first is higher: 10 for the first, 9.31 for the second.

Going from “AAAAAAAAAAAAATTGCACACAAAAAAAAAAAAAAA [CACACA_site8644]” to “TTCAACATAATATGCACACAAAAATTATGGAACGAA [CACACA_site2111]”, the “gcPBM binding intensity (ln)” value rises from 9.24 to 9.67.

First: AAAAAAAACAAATACACACGCACACCGAAAAAAAAA [CACACA_site803]
Second: CTTTATCTTCTCACGAAGATTGAATAAGGTATTCTT [XGTACX_negctrl_site307]
The “gcPBM binding intensity (ln)” value of the first is higher: 10 for the first, 9.03 for the second.

First: CAGACAATAAAGAAGTGTACACATATATCAATAAAA [XGTACX_site4515]
Second: AAAAAAAAATACCTACGTACATATATATATTATATA [XGTACX_site3983]
The “gcPBM binding intensity (ln)” value of the first is higher: 9.53 for the first, 9.24 for the second.

Compared with “AAAAAAAAAAAACACACACACACACCCACAAAATAT [CACACA_site1447]”, “TTAATGCACTTTATTACACACACTAGTTCATTACCT [CACACA_site2294]” is lower in “gcPBM binding intensity (ln)” value: 10.2 for the first, 9.85 for the second.

Compared with “AAAAAAAAATAAAATAAAATAAAATAAAATAATATA [CACACA_negctrl_site1798]”, “ACATATGTATAATAATGTACGCATTAAATATAATTA [XGTACX_site7851]” is lower in “gcPBM binding intensity (ln)” value: 9.39 for the first, 9.33 for the second.

First: AAACAAATGTACAAAGTGCATATTTTTTTCAAAAGG
Second: ATAATATATATTAATACACACACACCGATATATATA [CACACA_site9261]
The “gcPBM binding intensity (ln)” value of the first is lower: 9.19 for the first, 10.1 for the second.

Compared with “GACCAATACTTTAAAAGTACAAACCTTATTTTATTT [XGTACX_site2718]”, “TATTTTATAAATACAAGTAAAATTAAATATATAATA [XGTACX_negctrl_site221]” is lower in “gcPBM binding intensity (ln)” value: 9.38 for the first, 8.93 for the second.

Going from “AGGAGGATATTACACAGTACCCAGGAAATCTACGGA [XGTACX_site4878]” to “TTGTACTACAATCCTTTATTTATTTAAACCTGTATG [CACACA_negctrl_site428]”, the “gcPBM binding intensity (ln)” value falls from 9.28 to 9.14.

Compared with “TATATAAATAGACACACACACACATATAAATAAATA [CACACA_site7855]”, TTTCAATGCATAAAAGTGCGCAATAATTTAAAGATC is lower in “gcPBM binding intensity (ln)” value: 10.2 for the first, 9.23 for the second.

Compared with “AAATAAATATATATATGTACATACAAATACACGGTA [XGTACX_site8510]”, “AAGAAAAATGTCATATGATATCATATATTTTATAAT [TGCATGCA_negctrl_site296]” is lower in “gcPBM binding intensity (ln)” value: 9.65 for the first, 9.04 for the second.

First: ATTTTCCCTTGTTTTACACACGTGCTGATATGAGAT [CACACA_site2164]
Second: AAAAAAAAAAAAAAATGTACATTATACACATTATAT [XGTACX_site6824]
The “gcPBM binding intensity (ln)” value of the first is higher: 9.73 for the first, 9.28 for the second.

First: TAGCCAAAATATAATTTACACACTTATTAAATAATT [CACACA_site7963]
Second: AATTATGCATTTGTCACACATATATATTACACTTGC [CACACA_site5324]
The “gcPBM binding intensity (ln)” value of the first is lower: 9.22 for the first, 9.47 for the second.

Going from “ATATAATATTGAGTTTGTACATATATATATGAAGAT [XGTACX_site4444]” to CGATTTTTTAAGTTTGTGCACTTAAAAACTATAACA, the “gcPBM binding intensity (ln)” value falls from 9.34 to 8.88.

Compared with “CCATTTGATAATAATGCACACCACATATATTTATAT [CACACA_site9002]”, “AAAAGGAATTATAGGAAATAAATATATACAAATATA [TGCATGCA_negctrl_site528]” is lower in “gcPBM binding intensity (ln)” value: 9.46 for the first, 9.18 for the second.

“TATATGTCAATATCTACACACATATAGGTAATTATT [CACACA_site7475]” was tested, and the “gcPBM binding intensity (ln)” value was 9.55.

— the supplement of paper PMC11417369
